Reference: PubChem BioAssay AID485367 (National Center for Advancing Translational Sciences (NCATS), 2010)
“And” between values parts separate entries of the source, which are not always exact repeats. Identical values can stand only once. The campaign covered roughly 330,000 compounds. About 560 (0.17%) were called active. Inconclusive results, whose numbers are uncertain, are shown with a selection of clear calls. Calls come from the whole dose curve; as a rule, active = well fitted inhibition curve with a large enough effect; inconclusive = small, poorly fitted or top-dose-only effect, or effect the other way; inactive = flat fitted curve, though single readings scatter. No potency is given beside an inconclusive call; the fits are too rough.

Target: ATP-dependent 6-phosphofructokinase (Trypanosoma brucei brucei) (UniProt O15648)
Sequence of UniProt O15648 (O15648 whole entry, looked up): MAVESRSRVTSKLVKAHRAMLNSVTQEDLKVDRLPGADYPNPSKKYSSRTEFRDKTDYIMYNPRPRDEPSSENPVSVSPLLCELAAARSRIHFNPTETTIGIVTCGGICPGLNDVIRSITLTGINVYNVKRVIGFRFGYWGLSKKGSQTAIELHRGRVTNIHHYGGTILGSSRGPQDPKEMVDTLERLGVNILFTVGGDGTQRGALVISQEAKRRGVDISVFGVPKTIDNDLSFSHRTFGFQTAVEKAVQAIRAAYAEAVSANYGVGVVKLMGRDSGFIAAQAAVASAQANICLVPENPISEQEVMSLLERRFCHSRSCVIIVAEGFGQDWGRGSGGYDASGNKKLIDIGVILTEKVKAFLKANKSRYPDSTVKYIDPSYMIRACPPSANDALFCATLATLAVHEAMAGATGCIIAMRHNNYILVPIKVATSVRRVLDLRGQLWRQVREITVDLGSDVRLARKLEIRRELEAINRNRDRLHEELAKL
Test: qHTS Assay to Find Inhibitors of T. brucei phosphofructokinase; note: nearly all actives have a fitted effect of over 60% in size
Details: T. brucei PFK, ADP-Glo luminescence; activity, negative = inhibition: at 57.5 µM (top of the series)
Description: NIH Molecular Libraries Probe Production Network [MLPCN] NIH Chemical Genomics Center [NCGC] Grant: 1 R03 MH092153-01 PI Name: Malcolm Walkinshaw, University of Edinburgh NCGC Assay Overview: Various species of the protozoan family Trypanosomatidae are responsible for a range of serious human diseases in tropical and subtropical areas of the world. […] Many of the disorders caused by trypanosomatids are fatal if left untreated, but most currently used drugs are inefficient and toxic. […] Oxidative metabolism involving the mitochondrial tricarboxylic acid cycle and oxidative phosphorylation are repressed in these parasites, and recent RNA interference (RNAi) experiments have shown that even partial depletion of certain individual glycolytic enzymes can lead to the death of cultured parasites. One such glycolytic enzyme, phosphofructokinase (PFK), catalyzes the formation of fructose-1,6-bisphosphate (F1,6BP) and ADP from fructose-6-phosphate (F6P) and ATP, and in many metabolic circumstances makes an important contribution to the control of flux through the glycolytic pathway. As a specific glycolytic target, PFK is particularly attractive as it catalyzes the first irreversible step in glycolysis, and structural and kinetic studies have shown very substantial and essential differences from corresponding host enzymes, allowing for the discovery of parasite-selective inhibitors. The goal of this screen is to find small-molecule inhibitors of T. brucei PFK using a biochemical assay that measures PFK activity as a function of ADP production. A luminescence-based assay for T. brucei PFK activity has been developed which uses luciferase to detect production of ADP. Traditional luciferase-based nucleotide detection reagents rely on ATP production as a direct substrate for the luciferase reaction; however, PFK catalyzes the transfer of a phosphate from ATP to F6P, resulting in the net depletion of ATP. To directly measure the ADP product of the PFK reaction, we used the ADP-Glo detection kit (Promega), which utilizes two separate reactions to 1) deplete all remaining uncatalyzed ATP and 2) convert all remaining ADP to ATP, which is then detected through a traditional luciferase-coupled reaction. Compounds were screened as a concentration-titration series that ranged from 57 uM to 0.7 nM.
NCGC Assay Protocol Summary: NCGC Assay Protocol Summary: Substrate buffer was dispensed into white, solid 1536-well plates at 3uL/well in 0.1M triethanolamine (TEA) buffer, pH 8.0, containing final concentrations of 5 mM MgCl2, 0.01% Tween20, 0.5 mM fructose-6-phosphate (F6P) and 0.1mM ATP. Then, 23 nL of compounds or DMSO were delivered to each well using a pin tool. One uL T. brucei PFK (0.1M TEA, 0.01% Tween20, 0.1% bovine serum albumin (BSA) and 1.25nM PFK, final concentrations) was then dispensed, and plates were incubated at room temperature for 45 min. The luminescent detection reagent, ADP-Glo (Promega), was then added in two steps: the first reagent, ADP-Glo (which converts remaining uncatalyzed ATP), was added at 2.5uL/well and incubated for ten minutes at room temperature, and the second component, Kinase Detection reagent (which converts ADP to ATP as a substrate for luciferase-based luminescence), was added immediately after at 5uL/well, followed by one final ten minute room temperature incubation. The plates were measured on a ViewLux plate reader for luminescent signal using a clear filter with a one second exposure. The %Activity was determined from the corrected luminescence values. As no specific T. brucei PFK inhibitors have been identified in the literature, 1x (1.25nM) and 0x PFK enzyme controls (untreated) were included to normalize %Activity of identified inhibitors; 0x enzyme values corresponded to 100%Activity (full inhibition), while 1x PFK enzyme values were used to normalize 0%Activity (no inhibition). Concentration-response curves were fitted to the signals arising from the resulting luminescence. […]
Potency is the fitted concentration of half-maximal effect; tags give direction and shape of the fitted curve.

SMILES	Potency	activity, negative = inhibition
CO/C=C\C=C/c1nnn(-c2ccc(Cl)cc2)n1	inconclusive [falling, single point]	
Cc1ccc(C(C)C)c(OCC(=O)N/N=C/c2ccc(S(=O)(=O)O)o2)c1	inactive	
Cc1cc(F)ccc1S(=O)(=O)Nc1ccccc1C(=O)Nc1ccccc1-c1nc2ccccc2[nH]1	inactive	
CC1Sc2ccc(S(=O)(=O)CCC(=O)NCc3ccc(Cl)cc3)cc2NC1=O (configuration not stated)	inconclusive [falling, single point]	
O=[N+]([O-])c1cccc(S(=O)(=O)NCCOc2cccc3cccnc23)c1	inconclusive [falling, single point]	
Cn1ccnc1Sc1nc2c(c(=O)n(C)c(=O)n2C)n1C	inactive	
COc1ccc(OC)c(N=c2ssnc2Cl)c1	inconclusive [falling, single point]	
C=C(C)C(=O)OC1(C(F)(F)F)Oc2cc(C)ccc2NC1=O (configuration not stated)	inactive	
CCOc1ccc2c(c1)C(NC(C)=O)C(=O)N2CCN1CCOCC1 (configuration not stated)	inconclusive [falling, partial curve]	
CC1CCCC(C)N1CCCNC(=O)C(=O)Nc1ccc2nc3n(c(=O)c2c1)CCCCC3 (configuration not stated)	inactive	
O=[N+]([O-])c1cc(CN2CCOCC2)c2cccnc2c1O	inconclusive [activator, partial curve]	
Cc1ccc(/C=c2/sc3nnc(-c4ccccc4Cl)n3c2=O)o1	inconclusive [falling, single point]	
O=C(Nc1sc2c(c1C(=O)O)CCC2)c1cccc(Cl)c1	inconclusive [activator, single point]	
COc1ccc(N(CC(=O)Nc2ccc3c(c2)OCCO3)S(=O)(=O)c2c(C)noc2C)cc1	inactive	
COc1ccc(C2C3=C(CCCC3=O)Nc3nc(C(F)(F)F)nn32)cc1OC (configuration not stated)	inconclusive [activator, single point]	
COc1ccc(OC)c(C2C(C(C)=O)=C(O)C(=O)N2CCc2ccc(OC)c(OC)c2)c1 (configuration not stated)	inconclusive [falling, single point]	
C=CCn1c(=O)[nH]c2cc(C(=O)N3CCN(c4cccc(Cl)c4)CC3)ccc2c1=O	inconclusive [falling, single point]	
COc1ccccc1NC(=O)C(C)OC(=O)CSCC(=O)Nc1cc(C)on1 (configuration not stated)	inactive	
COCCN(Cc1cc2cccc(C)c2[nH]c1=O)C(=O)c1ccccc1	inconclusive [falling, single point]	
C/C(=N\Nc1cc(N2CCCCC2)nc(C)n1)c1ccc(Br)cc1	inactive	
CC1=NOC(=O)/C1=C/c1ccc(N(C)C)cc1	active: 15.1 µM	
O=c1[nH]c(=S)[nH]c2[nH]c(=S)[nH]c12	active: 16.9 µM and active: 13.5 µM	
O=C(c1cc2ccccc2oc1=O)N(Cc1cccs1)C1CCS(=O)(=O)C1 (configuration not stated)	inactive	
CNc1c([N+](=O)[O-])cnn1-c1ccc(Cl)cc1	inactive	

SMILES	Potency	activity, negative = inhibition
Cc1ccc(CNC(=O)/C=C/c2ccc(Br)o2)cc1	inactive	
CC(C)Oc1ccc(CNC(=O)Oc2ccccc2)cc1	inactive	
CCCCOc1ccc(/C=C/C(=O)OCC(=O)N2CC(=O)Nc3ccccc32)cc1OCC	inconclusive [falling, partial curve, poor fit]	
Cc1cc(SCc2ccc(Cl)c(Cl)c2)nc(=O)[nH]1	inconclusive [falling, partial curve]	
COc1ccc(/C=N\NC(=O)C2COc3ccccc3O2)cc1O (configuration not stated)	active: 13.5 µM	
Cc1cccc(Nc2nnc(SCC(=O)c3ccc(O)cc3O)s2)c1	inactive	
O=c1nc(/C=C/c2ccc(O)c(O)c2)oc2ccccc12	inconclusive [activator, single point]	
Cn1c(=O)cc(OCCCC(=O)NCc2ccco2)c2ccccc21	inconclusive [falling, single point]	
COc1ccc2cc(OCC(=O)NNC(=O)Nc3ccc(OC)c(OC)c3)ccc2c1	inconclusive [falling, partial curve, poor fit]	
O=C(Cn1nnc(-c2ccccc2)n1)N/N=C/c1cccc([N+](=O)[O-])c1	inconclusive [activator, single point]	
O=[N+]([O-])c1cc([N+](=O)[O-])c2cccnc2c1O	inconclusive [falling, full curve, poor fit]	
CN(C)CCC(c1ccc(Br)cc1)c1ccccn1 (configuration not stated)	inconclusive [activator, single point]	
CC(=O)c1ccc(NC(=O)NCc2ccc(F)cc2)cc1	inconclusive [falling, single point]	
COc1ccc(C(C[N+](=O)[O-])C2(c3ccc(OC)c(OC)c3)C(=O)c3ccccc3C2=O)cc1 (configuration not stated)	inconclusive [activator, full curve, poor fit]	
COC(C[C@@H]1O[C@@H]1[C@@H](O)[C@@H](C)OCc1ccccc1)OC	inactive	
N=C1SCC(=O)N1c1ncc(Cc2cccc(Cl)c2)s1	inconclusive [falling, partial curve]	
O=C(O)c1ccccc1NS(=O)(=O)c1ccc(NNC(=S)Nc2ccc(OC(F)F)cc2)c([N+](=O)[O-])c1	inconclusive [activator, single point]	
CN1CCN(S(=O)(=O)c2ccc(NC(=O)Cc3ccc([N+](=O)[O-])cc3)cc2)CC1	active: 16.9 µM	
O=C(CSc1nnc(SCc2ccccc2)s1)N/N=C/C=C/c1ccco1	inconclusive [falling, partial curve]	
CCN1CCN(CC(=O)Nc2sc3c(c2C#N)CCC3)CC1	inconclusive [falling, single point]	
CCOC(=O)N1CCC(N(C(=O)Nc2ccc(Cl)c(Cl)c2)C(C)CC)CC1 (configuration not stated)	active: 23.9 µM	
CCOc1ccc(C(=O)Nc2cc(-c3nc4ccccc4[nH]3)ccc2C)cc1[N+](=O)[O-]	inactive	
c1cc2c(cc1-c1csc(NNC3=NCCCCC3)n1)OCCO2	inconclusive [falling, single point]	
O=C(CCNC(=O)C1CCN(S(=O)(=O)c2ccccc2)CC1)NCc1ccc(Cl)c(Cl)c1	inconclusive [falling, partial curve]	

SMILES	Potency	activity, negative = inhibition
O=C(O)c1cccc(Nc2nc(-c3ccc([N+](=O)[O-])cc3)nc3ccccc23)c1	inconclusive [activator, full curve, poor fit]	
Cc1ccc(C(=O)NNC(=O)CNc2cccc(Cl)c2)cc1	active: 19 µM	
O=C(COC(=O)CSc1ccc([N+](=O)[O-])cc1)NCC1CCCO1 (configuration not stated)		inconclusive: -34.7%
CCOc1ccc(S(=O)(=O)N2CCc3cc(OC)c(OC)cc3C2)cc1	inactive	
CNS(=O)(=O)c1ccc(NC(=O)Nc2cccc(F)c2)cc1	inconclusive [falling, single point]	
CN1CCN(C(=O)c2sc(=S)n(-c3ccccc3)c2N)CC1	active: 10.7 µM	
Cc1ccc(C(=O)OCC(=O)Nc2ccc3[nH]c(=O)[nH]c3c2)o1	inconclusive [falling, single point]	
O=C(C1COc2ccccc2O1)N1CCc2ccccc21 (configuration not stated)	inconclusive [falling, partial curve]	
O=c1c(Cl)c2oc3ccccc3nc-2c2ccccc12	inactive	
C#CCOCCOCCOCCNc1nc(N2CCN(C(=O)CCCCCCCCCCNC(=O)[C@H](CO)n3cc(CCCSC)nn3)CC2)nc(N2CCN(C(=O)CCCCCCCCCCNC(=O)[C@H](CCCN=C(N)N)n3cc(C[C@@H](C)CC)nn3)CC2)n1	inconclusive [activator, single point]	
COc1cccc(N2CCN(C(=S)Nc3ccccc3)CC2)c1	inconclusive [falling, single point]	
O=C(NN=C1c2ccccc2-c2ccccc21)c1ccccc1	inconclusive [falling, single point]	
CS(=O)(=O)NN1C(=O)c2ccccc2NC1c1cc2ccccc2nc1Cl (configuration not stated)	active: 21.3 µM	
Cc1c(Cl)cccc1NC(CC(=O)c1ccccc1)C(=O)O (configuration not stated)	inconclusive [activator, partial curve]	
O=C(O)COc1ccccc1C=NNc1ccc([N+](=O)[O-])cc1S(=O)(=O)Nc1ccc(Cl)cc1	active: 19 µM	
O=C(O)c1cc(-c2ccco2)nc2cc3ccccc3cc12	inconclusive [activator, partial curve]	
CCCCCn1cnc2c(=S)nc(N)[nH]c21	inconclusive [falling, full curve]	
Cc1ccc(S(=O)(=O)N2CCCCC2)cc1C(=O)Nc1cccnc1	inactive	
CC1(C)N=C(N)NC(Nc2ccc(Br)cc2)=N1	inconclusive [falling, partial curve]	
O=C(Nc1ccc(Cl)cc1)Nc1ccon1	inconclusive [falling, partial curve]	
COc1cc(/C=C(\C#N)c2nc3ccc(C)cc3[nH]2)cc([N+](=O)[O-])c1O	inactive	
Nc1ccc(C(=O)Nc2cccc(NC(=O)c3ccc(N)cc3)c2)cc1	inactive	
Cc1ccc(-c2nn(-c3ccccc3)cc2/C=N/NC(=O)c2ccc(Br)o2)cc1	inconclusive [falling, single point]	
Nc1nc(-c2ccccc2)cc(-c2ccccc2O)n1	inconclusive [activator, single point]	
